No constants are given. Whether binding was seen depends on the method and setting. For some assays here: Binding seen in cells or lysates may run through a third protein. Some results given as binding are weak or reduced against the parent protein; the word gives no strength. For some assays here: Sequences can lack the tags named with a protein.

Assay [1] deals with T1, CTCFL (CTCF like/brother of the regulator of imprinted sites), yeast two-hybrid bait (mouse) (UniProt A2APF3).
T1 sequence: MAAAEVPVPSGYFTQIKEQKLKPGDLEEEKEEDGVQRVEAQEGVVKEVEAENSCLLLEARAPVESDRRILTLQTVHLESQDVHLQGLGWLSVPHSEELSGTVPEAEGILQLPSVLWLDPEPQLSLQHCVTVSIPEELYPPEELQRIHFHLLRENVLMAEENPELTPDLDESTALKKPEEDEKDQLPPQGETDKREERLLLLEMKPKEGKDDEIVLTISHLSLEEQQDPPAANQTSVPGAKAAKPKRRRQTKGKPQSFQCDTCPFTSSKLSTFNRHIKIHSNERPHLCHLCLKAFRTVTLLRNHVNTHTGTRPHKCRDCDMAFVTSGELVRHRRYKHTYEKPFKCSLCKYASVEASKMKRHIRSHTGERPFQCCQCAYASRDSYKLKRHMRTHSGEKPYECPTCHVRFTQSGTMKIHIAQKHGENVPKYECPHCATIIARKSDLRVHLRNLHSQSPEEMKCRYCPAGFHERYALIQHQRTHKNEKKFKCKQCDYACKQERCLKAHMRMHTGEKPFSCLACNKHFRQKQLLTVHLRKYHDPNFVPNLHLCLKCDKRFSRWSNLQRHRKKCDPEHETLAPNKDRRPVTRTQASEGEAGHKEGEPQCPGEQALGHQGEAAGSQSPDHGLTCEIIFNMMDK
The assay can be described thus: two-hybrid; Matchmaker GAL4 Two-Hybrid System 3; CTCFL bait against a mouse testis cDNA prey library; four drop-out selection media, β-galactosidase screen; prey candidates re-transformed into bait strains.

In assay [2] the target is T2, CMV-GST N-terminal CTCFL (1-229 aa) (mouse) (UniProt A2APF3).
T2 sequence: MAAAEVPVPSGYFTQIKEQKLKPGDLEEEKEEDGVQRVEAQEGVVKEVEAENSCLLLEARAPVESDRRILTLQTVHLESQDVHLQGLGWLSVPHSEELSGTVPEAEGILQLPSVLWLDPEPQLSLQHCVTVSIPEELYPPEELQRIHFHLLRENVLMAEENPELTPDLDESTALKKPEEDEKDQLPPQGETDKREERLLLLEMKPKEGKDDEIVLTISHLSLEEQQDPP
The assay can be described thus: pull-down; in situ GST interaction assay: CMV-GST fusion (bait) and myc- or V5-tagged prey co-transfected in 293T cells; glutathione beads, overnight at 4 °C; beads washed 4 times in lysis buffer; Western blot. On the technique in general: In western blotting, separated proteins are transferred to a membrane and probed.

For assay [3], the target named is T3, CMV-GST PRMT7 (full length) (mouse) (UniProt Q922X9).
T3 sequence: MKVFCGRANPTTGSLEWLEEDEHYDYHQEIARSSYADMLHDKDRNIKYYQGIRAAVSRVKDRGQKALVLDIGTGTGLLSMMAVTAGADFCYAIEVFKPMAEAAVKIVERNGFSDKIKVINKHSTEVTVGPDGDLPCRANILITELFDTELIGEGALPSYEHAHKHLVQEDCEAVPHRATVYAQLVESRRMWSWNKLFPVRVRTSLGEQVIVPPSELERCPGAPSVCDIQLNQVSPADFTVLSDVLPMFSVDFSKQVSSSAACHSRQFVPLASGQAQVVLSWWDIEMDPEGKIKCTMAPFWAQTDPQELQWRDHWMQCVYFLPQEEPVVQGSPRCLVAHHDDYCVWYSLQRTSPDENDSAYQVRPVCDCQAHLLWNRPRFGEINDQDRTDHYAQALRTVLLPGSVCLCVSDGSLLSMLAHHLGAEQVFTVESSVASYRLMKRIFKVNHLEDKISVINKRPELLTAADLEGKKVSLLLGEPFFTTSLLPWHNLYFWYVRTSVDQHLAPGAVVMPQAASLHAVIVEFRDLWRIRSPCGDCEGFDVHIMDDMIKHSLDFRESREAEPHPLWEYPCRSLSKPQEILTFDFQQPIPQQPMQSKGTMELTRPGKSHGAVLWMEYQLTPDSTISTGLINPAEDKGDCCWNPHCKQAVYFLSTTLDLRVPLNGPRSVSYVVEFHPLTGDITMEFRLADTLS
The assay is described as above.

Assay [4] has as its target T4, V5-tagged PRMT7 (mouse) (UniProt Q922X9).
T4 sequence: T3 sequence
The assay can be described thus: co-IP; 293T extracts with over-expressed CTCFL-Myc and PRMT7-V5; immunoprecipitated with α-V5 antibody or normal mouse serum; CTCFL detected with α-Myc.

B1: PRMT7 prey clone (carboxy-terminal 87 amino acids of the 692-aa protein) (domain or fragment, UniProt Q922X9 606-692)
chain: GKSHGAVLWMEYQLTPDSTISTGLINPAEDKGDCCWNPHCKQAVYFLSTTLDLRVPLNGPRSVSYVVEFHPLTGDITMEFRLADTLS
B1: in assay [1], the binding entry is “binds”.

B2: V5-tagged PRMT7 (enzyme, UniProt Q922X9 1-692)
chain: T3 sequence
Regarding B2, in assay [2], the binding result is recorded as “binds”.

B3: V5-tagged CTCF (protein, UniProt Q61164 1-736)
chain: MEGEAVEAIVEESETFIKGKERKTYQRRREGGQEEDACHLPQNQTDGGEVVQDVNSSVQMVMMEQLDPTLLQMKTEVMEGTVAPEAEAAVDDTQIITLQVVNMEEQPINIGELQLVQVPVPVTVPVATTSVEELQGAYENEVSKEGLAESEPMICHTLPLPEGFQVVKVGANGEVETLEQGELPPQEDSSWQKDPDYQPPAKKTKKTKKSKLRYTEEGKDVDVSVYDFEEEQQEGLLSEVNAEKVVGNMKPPKPTKIKKKGVKKTFQCELCSYTCPRRSNLDRHMKSHTDERPHKCHLCGRAFRTVTLLRNHLNTHTGTRPHKCPDCDMAFVTSGELVRHRRYKHTHEKPFKCSMCDYASVEVSKLKRHIRSHTGERPFQCSLCSYASRDTYKLKRHMRTHSGEKPYECYICHARFTQSGTMKMHILQKHTENVAKFHCPHCDTVIARKSDLGVHLRKQHSYIEQGKKCRYCDAVFHERYALIQHQKSHKNEKRFKCDQCDYACRQERHMIMHKRTHTGEKPYACSHCDKTFRQKQLLDMHFKRYHDPNFVPAAFVCSKCGKTFTRRNTMARHADNCAGPDGVEGENGGETKKSKRGRKRKMRSKKEDSSDSEENAEPDLDDNEEEEEPAVEIEPEPEPQPQPPPPPQPVAPAPPPAKKRRGRPPGRTNQPKQNQPTAIIQVEDQNTGAIENIIVEVKKEPDAEPAEGEEEEAQAATTDAPNGDLTPEMILSMMDR
In the case of B3, in assay [3], the binding entry is given as “no binding”.

B4: V5-tagged N-terminal CTCFL (domain or fragment, UniProt A2APF3 1-229)
chain: T2 sequence
As for B4, in assay [3], the binding result is “binds”.

B5: Myc-tagged CTCFL (full length) (protein, UniProt A2APF3 1-636)
chain: T1 sequence
As to B5, the binding result in assay [4] is “binds”.

(Values after PMC1609128.)
